# Results as given in PubChem BioAssay AID1487 (National Center for Advancing Translational Sciences (NCATS), 2009).
# Screen size: about 200,000 compounds; about 25 (0.01%) were called active. Inconclusive results (about 23%) are left out. Calls come from the whole dose curve; as a rule, active = well fitted inhibition curve with a large enough effect in the signal ratio, with a control signal flat (not every such curve was filed as active); inconclusive = small, poorly fitted or top-dose-only effect, or effect the other way, or a change in a side signal; inactive = flat fitted curve, though single readings scatter; the % refers to the signal ratio. This is a selection; strong and weak results do not stand in their true shares.
# Test: qHTS Assay for Modulators of Lamin A Splicing
# Details: HeLa LMNA splicing GFP/RFP minigene ratio, 48 h; series mostly up to 46.1 µM; ratio change, negative = inhibition: at the top concentration
# Summary of the method: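 S3 HeLa cells stably expressing lamin A-EGFP splicing minigene plus DsRed2, 600 cells/well, 48 h compound exposure at 37C. Laser-scanning cytometry; analysed as GFP (500-530 nm)/RFP (575-640 nm) total intensity ratio; 0.5% DMSO vehicle.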
# % is set by controls: 0 for no effect and ±100 for the full control effect; potency is the fitted concentration of half-maximal effect.
Compound,"ratio change, negative = inhibition",Potency
NCC[C@H](O)C(=O)N[C@@H]1C[C@H](N)[C@@H](O[C@H]2O[C@H](CN)[C@@H](O)[C@H](O)[C@H]2O)[C@H](O)[C@H]1O[C@H]1O[C@H](CO)[C@@H](O)[C@H](N)[C@H]1O,inactive: 7.55%,
Cc1ccc(C2C(=O)N(C3CCC(C)CC3)CC(=O)N2C2CCCC2)cc1 (stereo not given),inactive: 0.441%,
COc1c2c(nc3ccccc13)OC(C(C)(O)CO)C2 (stereo not given),inactive: 7.34%,
CN(C)[C@@H]1C(=O)C(C(N)=O)=C(O)[C@@]2(O)C(=O)C3=C(O)c4c(O)ccc(Cl)c4[C@@H](O)[C@H]3C[C@@H]12,inactive: 1.02%,
CC(C)(C)NCC(O)COc1cccc2c1C[C@H](O)[C@H](O)C2 (stereo not given in full),inactive: 2.92%,
COc1ccc(/C=C2\SC(c3ccc(C)cc3)=NC2=O)cc1OC,inactive: -6.4%,
C#C[C@]1(O)CC[C@H]2[C@@H]3CCC4=C(CCC(=O)C4)[C@H]3CC[C@@]21C,inactive: 1.12%,
CC(C)(C)NCC(O)c1cc(O)cc(O)c1 (stereo not given),inactive: -1.07%,
CCOC(=O)c1c(-c2cccc(C)c2)csc1NC(=O)c1c(-c2ccccc2)noc1C,,active: 0.631 µM
CCOc1ccc(NC(C)=O)cc1,inactive: -9.42%,
CN1CCC[C@@H]1CCO[C@](C)(c1ccccc1)c1ccc(Cl)cc1,inactive: -19.1%,
CCOC(=O)CN1C(=O)N[C@H](c2ccc(Br)cc2)C(C(C)=O)=C1C,inactive: 2.62%,
CCCCOC(=O)C1C2C=CC3(CN(CCc4ccccc4)C(=O)C13)O2 (stereo not given),inactive: 0.3%,
C/C(CCN1CCc2nc(-c3ccccc3)c(-c3ccccc3)cc2C1)=N\O[C@@H](C)c1cn([C@H](CO)Cc2ccccc2)nn1,inactive: -10.4%,
Cc1ccccc1C(OCCN(C)C)c1ccccc1 (stereo not given),inactive: 0.356%,
C[C@@]12CC3CC(N)(C1)C[C@@](C)(C3)C2,inactive: -7.39%,
CN1CCC(=C2c3ccccc3CCc3sccc32)CC1,inactive,
COc1ccccc1N1CCN(CCCCNC(=O)c2ccc3ccccc3c2)CC1,inactive: -25.5%,
CC(O)(P(=O)(O)O)P(=O)(O)O,inactive: -1.55%,
Cc1cnc(C(=O)NCCc2ccc(S(=O)(=O)NC(=O)NC3CCCCC3)cc2)cn1,inactive,
CCOC(=O)[C@H](CCc1ccccc1)N[C@@H](C)C(=O)N1CCC[C@H]1C(=O)O,inactive: -2.03%,
CC(=O)O[C@]1(C(C)=O)CC[C@@H]2[C@@H]3C=C(C)C4=CC(=O)CC[C@@]4(C)[C@H]3CC[C@]21C,inactive: 13%,
CN(C)CC/C=C1\c2ccccc2COc2ccccc21,inactive,

Compound,"ratio change, negative = inhibition",Potency
C[C@]12CC[C@@H]3c4ccc(O)cc4CC[C@H]3[C@@H]1C[C@@H](O)[C@@H]2O,inactive: 10.1%,
O=C(CSCc1ccc(F)cc1)N1CCN(c2ccccc2)CC1,inactive: 11.4% [at 46 µM],
CCOc1cc(N2CCOCC2)c(OCC)cc1NC(=O)Cn1[nH]c(=O)c2ccccc2c1=O,inactive: 6.3%,
Cc1ccccc1N1C(=O)c2cc(S(N)(=O)=O)c(Cl)cc2NC1C (stereo not given),inactive: -18.8%,
Nc1nc(SCc2ccc([N+](=O)[O-])cc2)c2ncn([C@@H]3O[C@H](CO)[C@H](O)[C@H]3O)c2n1,inactive: -17.5%,
C[C@@H]1C[C@H](OC(=O)c2ccccc2O)CC(C)(C)C1,inactive: 3.2%,
C[C@]12CC[C@@H]3c4ccc(O)cc4CC[C@H]3[C@@H]1C[C@H](O)C2O (stereo not given in full),inactive: 1.99%,
CC(C)NC[C@H](O)c1ccc(O)c(O)c1,inactive: -14.7%,
O=C(CCN1C(=O)/C(=C\c2cccs2)SC1=S)Nc1ccccn1,inactive: -21.6% [at 46 µM],
CC1CCC(C(C)C)C(OC(=O)Cn2c(-c3ccc(Br)cc3)[n+](C)c3ccccc32)C1 (stereo not given),inactive: -24.2% [at 46 µM],
O=C(NN1C(=O)/C(=C\c2cccnc2)SC1=S)C(c1ccccc1)c1ccccc1,inactive: -21.1%,
CCCCNC(=O)NS(=O)(=O)c1ccc(C)cc1,inactive,
CC(C)NCC(O)COc1cccc2ccccc12 (stereo not given),inactive: 3.12%,
CC1(C)NC(=O)N(c2ccc([N+](=O)[O-])c(C(F)(F)F)c2)C1=O,inactive: -1.21%,
CCCCOc1cc(C(=O)NCCN(CC)CC)c2ccccc2n1,inactive: 5.73%,
O=C1CCc2cc(OCCCCc3nnnn3C3CCCCC3)ccc2N1,inactive,
Fc1ccc(C(c2ccc(F)cc2)N2CCN(C/C=C\c3ccccc3)CC2)cc1,inactive: -13.1%,
COc1cnc(NS(=O)(=O)c2ccc(N)cc2)nc1,inactive: 1.17%,
O=C(O)CCC(=O)Nc1ccc(S(=O)(=O)Nc2nccs2)cc1,inactive: 4.54%,
CC1CNCCN1S(=O)(=O)c1cccc2cnccc12 (stereo not given),inactive: -1.13%,
CNCCC(Oc1ccccc1OC)c1ccccc1 (stereo not given),inactive: -21.2%,
CCOC(=O)C1=C[C@]2(CC)CCCN3CCc4c(n1c1ccccc41)[C@@H]32,inactive: -16%,
O=C1C2C3c4ccccc4C(c4ccccc43)[C@@H]2c2nc3ccccc3n21 (stereo not given in full),inactive: 1.81%,

Compound,"ratio change, negative = inhibition",Potency
CCOc1ccc(CNC(=O)c2ccc(Sc3ccc(Cl)cc3)c(NC(C)=O)c2)cc1,inactive: -22.3% [at 46 µM],
CNC(=O)/C(=C\c1ccc2c(c1)OCO2)NC(=O)c1ccc(Br)cc1,inactive: -21.4%,
CN1C(C(=O)Nc2ccccn2)=C(O)c2sccc2S1(=O)=O,inactive: -0.123%,
Cc1[nH]c(=O)c(C#N)cc1-c1ccncc1,inactive: -19.3%,
COCCN1C(=O)N[C@@H](c2cccc(C(F)(F)F)c2)C(C(=O)OC)=C1C,inactive: -4.38% [at 9.22 µM],
COc1cccc(OC)c1OCCNCC1COc2ccccc2O1 (stereo not given),inactive: -5.53%,
COc1ccc(CCn2c(=O)[nH]c3cc(C(=O)N4CCN(c5ccccc5)CC4)ccc3c2=O)cc1OC,inactive: 13.1% [at 46 µM],
Nc1c(C(=O)Nc2cccc(F)c2)nnn1-c1cccc(C(F)(F)F)c1,inactive: 18.3% [at 46 µM],
CC(=O)c1cc2c(cc1N/C(=N/S(=O)(=O)c1ccccc1)c1ccc(Cl)cc1)OCO2,inactive: -5.16% [at 46 µM],
N#C/C(=C/c1ccco1)c1nc2ccccc2s1,inactive: -6.44%,
O=C(NCc1ccccc1)[C@@H]1C[C@H]1[C@@H](NP(=O)(c1ccccc1)c1ccccc1)c1ccccc1,inactive: 5.06%,
NCCCCNCCCN,inactive: 13.7%,
N[C@H](CO)C(=O)O,inactive: -23.3%,
CCCCS(=O)(=O)/C=C/[C@H]1[C@H](S(=O)(=O)CCCC)[C@H]2C=C[C@@H]1C2,inactive: -3.27%,
CC(C)NC[C@H](O)COc1ccc(CC(N)=O)cc1,inactive,
COc1cc(OC)c(C(=O)CCCN2CCCC2)c(OC)c1,inactive: -4.44%,
CN1CCC(=C2c3ccccc3CC(=O)c3sccc32)CC1,inactive: -11.1% [at 46 µM],
CCCN(CCC)C(=O)C(CCC(=O)O)NC(=O)c1ccccc1 (stereo not given),inactive: -23.4%,
COc1ccc(-n2c3c(c(=O)[nH]c2=O)C(NC(C)=O)(C(F)(F)F)C(=O)N3)cc1 (stereo not given),inactive: 12.4% [at 46 µM],
CC(N)(Cc1ccc(O)c(O)c1)C(=O)O (stereo not given),inactive: -17.8%,
COc1cc(/C=C2\SC(=S)N(CC(=O)NC(C)(C)C)C2=O)cc(OC)c1OC,inactive: 4.31% [at 9.22 µM],
CCC(=O)O[C@@]1(C(=O)CCl)C(C)CC2C3CCC4=CC(=O)C=C[C@@]4(C)[C@]3(F)C(O)C[C@]21C (stereo not given in full),inactive: -16.3%,
COc1cc(NS(=O)(=O)c2ccc(N)cc2)nc(OC)n1,inactive: 4.32%,

Compound,"ratio change, negative = inhibition",Potency
CN(C)CCOC(=O)C1(c2ccccc2)CCOCC1,inactive: -6.66%,
Cn1sc(=O)c2cc(S(=O)(=O)NC3CC3)ccc21,,active: 11.2 µM
O=C1S/C(=C/c2ccc(N3CCOCC3)o2)C(=O)N1Cc1c(F)cccc1Cl,inactive: 6.27%,
CCCC(=O)O[C@]1(C(=O)CO)CC[C@H]2[C@@H]3CCC4=CC(=O)CC[C@]4(C)[C@H]3[C@@H](O)C[C@@]21C,inactive: -5.54%,
COC(=O)/C(=C\c1ccc2c(c1)c1ccccc1n2C)NC(=O)c1ccccc1,inactive: -21.5%,
CCC(Oc1ccccc1)C(=O)NC1C(=O)N2C1SC(C)(C)C2C(=O)O (stereo not given),inactive: -14.2% [at 46 µM],
CC1(C)[C@@H](O)CC[C@]2(C)[C@H]3C(=O)C=C4[C@@H]5C[C@@](C)(C(=O)O)CC[C@]5(C)CC[C@@]4(C)[C@]3(C)CC[C@@H]12,inactive: -5.48%,
O=C(N[C@@H](CO)[C@@H](O)c1ccc([N+](=O)[O-])cc1)C(Cl)Cl,inactive: -18.7%,
CCOC(=O)c1cnc2c(C)cccc2c1NCCc1ccc(OC)c(OC)c1,inactive: -18.9% [at 46 µM],
CN1C(=O)/C(=C/c2cc(N=Nc3ccccc3)ccc2O)SC1=S,inactive: 1.77%,
CC(C[N+](C)(C)C)OC(N)=O (stereo not given),inactive,
Cc1onc(-c2c(Cl)cccc2Cl)c1C(=O)NC1C(=O)N2C1SC(C)(C)C2C(=O)O (stereo not given),inactive: 6.99% [at 46 µM],
Cc1cn([C@H]2C[C@H](N=[N+]=[N-])[C@@H](CO)O2)c(=O)[nH]c1=O,inactive: -3.71%,
COC(=O)[C@@H](N)CS,inactive: -1.75%,
CCCCC1C(=O)N(c2ccccc2)N(c2ccccc2)C1=O,inactive: -5.59%,
CCCc1nc2c(C)cc(-c3nc4ccccc4n3C)cc2n1Cc1ccc(-c2ccccc2C(=O)O)cc1,inactive: 18.5% [at 46 µM],
N=C(N)N1CCc2ccccc2C1,inactive,
O=C(O)Cc1cc(I)c(Oc2ccc(O)c(I)c2)c(I)c1,inactive: -24%,
O=C(Nc1ccc(Cl)cc1)N1CCC(c2ccccc2)C1 (stereo not given),inactive: -2.27% [at 46 µM],
CC[C@@H]1OC(=O)[C@H](C)[C@H](O[C@@H]2C[C@](C)(OC)[C@H](O)[C@H](C)O2)[C@H](C)[C@H](O[C@@H]2O[C@@H](C)C[C@@H](N(C)C)[C@@H]2O)[C@](C)(O)C[C@H](C)C(=O)[C@H](C)[C@H](O)[C@]1(C)O,inactive: -12%,
CC(/C=N/NC(=O)c1ccncc1)=C\c1ccc(C(C)C)cc1,inactive: -5.9%,
